# Assay results from the supplement of paper PMC8728848.
# Some of the results follow.
# B1: SP8524D-bot-399-27-399 (Bacteroides ovatus) (protein)
# chain: DAKYDTLDTHAYIEEALSSTSQKVTVQATGESFTTLNVHLSNLSSTDNHYKLVTDQSVLDTYNHINGTGYIMLPKDYYTLPETITVKAGQYAADALSIALKAFSQEMMKSGESYALPVKLVLQDGSISPMENTGTFVILAESIIEFSAPMFVGAPSLKANKFTESPETYSQYTIEVRFQVANTADRDRAVFKNGGDDANFILLRFEDPQSDNENYKAHSLVQIVGRNRLYLNPSNSFKPNEWQHLALVCDGSNYRLYINGVDSGVLSIPTGATTFSDVNWFCLGDDSYSRWGNCKILMSEARIWSVVRSASQIQNNMTQVSPKSVGLEAYWRFNEGQGNVFEDATGKGHTLTTSATPTWIDGILSTDKSTEWK
# Key:
# Experiment in all cases: glycan array binding signal (z-score within array); higher = stronger binding
# Conditions in all cases: glycan notation: IUPAC condensed, linker removed
# [1] = target: Fuc(a1-3)[Gal(b1-4)]GlcNAc(b1-3)Gal(b1-4)[Fuc(a1-3)]GlcNAc
# Summary of the method: (§1)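 Columns mapping to the same glycan were averaged after glycan names were converted to IUPAC-condensed notation. The data come from 3228 arrays in the Consortium for Functional Glycomics database, limited to those with an available protein sequence. Binding is reported as a within-array Z-score averaged across arrays of one protein sequence and across linkers.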
# [2] = target: Fuc(a1-3)[Gal(b1-4)]GlcNAc(b1-3)Gal(b1-4)[Fuc(a1-3)]GlcNAc(b1-3)Gal(b1-4)[Fuc(a1-3)]GlcNAc
# Summary of the method: as §1
# [3] = target: Fuc(a1-3)[Gal(b1-4)]GlcNAc(b1-3)GalNAc
# Summary of the method: as §1
# [4] = target: Fuc(a1-3)[Gal(b1-4)]GlcNAc(b1-6)GalNAc
# Summary of the method: as §1
# [5] = target: Fuc(a1-3)[Gal(b1-4)]GlcNAc(b1-6)[Gal(b1-3)GlcNAc(b1-3)]Gal(b1-4)Glc
# Summary of the method: as §1
# [6] = target: Fuc(a1-3)[Gal(b1-4)]GlcNAc6S
# Summary of the method: as §1
# [7] = target: Fuc(a1-3)[Gal3S(b1-4)]Glc
# Summary of the method: as §1
# [8] = target: Fuc(a1-3)[Gal3S(b1-4)]GlcNAc
# Summary of the method: as §1
# [9] = target: Fuc(a1-3)[Gal3S(b1-4)]GlcNAc6S
# Summary of the method: as §1
# [10] = target: Fuc(a1-3)[GalNAc(b1-4)]GlcNAc
# Summary of the method: as §1
# [11] = target: Fuc(a1-3)[GalNAc(b1-4)]GlcNAc6S
# Summary of the method: as §1
# Fuc(a1-4)GlcNAc = target: Fuc(a1-4)GlcNAc
# Summary of the method: as §1
# Fuc(b1-3)GlcNAc = target: Fuc(b1-3)GlcNAc
# Summary of the method: as §1
# Gal(a1-2)Gal = target: Gal(a1-2)Gal
# Summary of the method: as §1
# Gal(a1-3)Gal = target: Gal(a1-3)Gal
# Summary of the method: as §1
# Gal(a1-3)Gal(b1-3)GlcNAc = target: Gal(a1-3)Gal(b1-3)GlcNAc
# Summary of the method: as §1
# [12] = target: Gal(a1-3)Gal(b1-3)GlcNAc(b1-2)Man
# Summary of the method: as §1
# [13] = target: Gal(a1-3)Gal(b1-3)GlcNAc(b1-2)Man(a1-3)[Gal(a1-3)Gal(b1-3)GlcNAc(b1-2)Man(a1-6)]Man(b1-4)GlcNAc(b1-4)GlcNAc
# Summary of the method: as §1
# [14] = target: Gal(a1-3)Gal(b1-3)GlcNAc(b1-3)GalNAc
# Summary of the method: as §1
# [15] = target: Gal(a1-3)Gal(b1-3)GlcNAc(b1-6)GalNAc
# Summary of the method: as §1
# [16] = target: Gal(a1-3)Gal(b1-3)[Fuc(a1-4)]GlcNAc(b1-2)Man(a1-3)[Gal(a1-3)Gal(b1-3)[Fuc(a1-4)]GlcNAc(b1-2)Man(a1-6)]Man(b1-4)GlcNAc(b1-4)GlcNAc
# Summary of the method: as §1
# Gal(a1-3)Gal(b1-4)Glc = target: Gal(a1-3)Gal(b1-4)Glc
# Summary of the method: as §1
# Gal(a1-3)Gal(b1-4)GlcNAc = target: Gal(a1-3)Gal(b1-4)GlcNAc
# Summary of the method: as §1
# [17] = target: Gal(a1-3)Gal(b1-4)GlcNAc(b1-2)Man
# Summary of the method: as §1
# [18] = target: Gal(a1-3)Gal(b1-4)GlcNAc(b1-2)Man(a1-3)[Gal(a1-3)Gal(b1-4)GlcNAc(b1-2)Man(a1-6)]Man(b1-4)GlcNAc(b1-4)GlcNAc
# Summary of the method: as §1
# [19] = target: Gal(a1-3)Gal(b1-4)GlcNAc(b1-3)GalNAc
# Summary of the method: as §1
# [20] = target: Gal(a1-3)Gal(b1-4)GlcNAc(b1-6)GalNAc
# Summary of the method: as §1
# [21] = target: Gal(a1-3)Gal(b1-4)[Fuc(a1-3)]GlcNAc
# Summary of the method: as §1
# [22] = target: Gal(a1-3)Gal(b1-4)[Fuc(a1-3)]GlcNAc(b1-2)Man(a1-3)[Gal(a1-3)Gal(b1-4)[Fuc(a1-3)]GlcNAc(b1-2)Man(a1-6)]Man(b1-4)GlcNAc(b1-4)GlcNAc
# Summary of the method: as §1
# Gal(a1-3)GalNAc = target: Gal(a1-3)GalNAc
# Summary of the method: as §1
# [23] = target: Gal(a1-3)[Gal(a1-4)]Gal(b1-4)GlcNAc
# Summary of the method: as §1
# [24] = target: Gal(a1-4)Gal(b1-3)GlcNAc(b1-2)Man(a1-3)[Gal(a1-4)Gal(b1-3)GlcNAc(b1-2)Man(a1-6)]Man(b1-4)GlcNAc(b1-4)GlcNAc
# Summary of the method: as §1
# Gal(a1-4)Gal(b1-4)Glc = target: Gal(a1-4)Gal(b1-4)Glc
# Summary of the method: as §1
# Gal(a1-4)Gal(b1-4)GlcNAc = target: Gal(a1-4)Gal(b1-4)GlcNAc
# Summary of the method: as §1
# [25] = target: Gal(a1-4)Gal(b1-4)GlcNAc(b1-2)Man(a1-3)[Gal(a1-4)Gal(b1-4)GlcNAc(b1-2)Man(a1-6)]Man(b1-4)GlcNAc(b1-4)GlcNAc
# Summary of the method: as §1
# [26] = target: Gal(a1-4)Gal(b1-4)GlcNAc(b1-3)Gal(b1-4)Glc
# Summary of the method: as §1
# Gal(a1-4)GlcNAc = target: Gal(a1-4)GlcNAc
# Summary of the method: as §1
# Gal(a1-6)Glc = target: Gal(a1-6)Glc
# Summary of the method: as §1
binder,measurement,setting,value
B1,glycan array binding signal (z-score),[1],-0.486
same,glycan array binding signal (z-score),[2],0.228
same,glycan array binding signal (z-score),[3],-0.197
same,glycan array binding signal (z-score),[4],0.306
same,glycan array binding signal (z-score),[5],-0.326
same,glycan array binding signal (z-score),[6],-0.038
same,glycan array binding signal (z-score),[7],-0.356
same,glycan array binding signal (z-score),[8],0.675
same,glycan array binding signal (z-score),[9],0.012
same,glycan array binding signal (z-score),[10],1.02
same,glycan array binding signal (z-score),[11],-0.001
same,glycan array binding signal (z-score),Fuc(a1-4)GlcNAc,6.02
same,glycan array binding signal (z-score),Fuc(b1-3)GlcNAc,-0.083
same,glycan array binding signal (z-score),Gal(a1-2)Gal,-0.243
same,glycan array binding signal (z-score),Gal(a1-3)Gal,0.103
same,glycan array binding signal (z-score),Gal(a1-3)Gal(b1-3)GlcNAc,-0.411
same,glycan array binding signal (z-score),[12],-0.197
same,glycan array binding signal (z-score),[13],-0.354
same,glycan array binding signal (z-score),[14],-0.204
same,glycan array binding signal (z-score),[15],0.005
same,glycan array binding signal (z-score),[16],-0.187
same,glycan array binding signal (z-score),Gal(a1-3)Gal(b1-4)Glc,-0.416
same,glycan array binding signal (z-score),Gal(a1-3)Gal(b1-4)GlcNAc,-0.463
same,glycan array binding signal (z-score),[17],-0.453
same,glycan array binding signal (z-score),[18],0.063
same,glycan array binding signal (z-score),[19],-0.022
same,glycan array binding signal (z-score),[20],-0.05
same,glycan array binding signal (z-score),[21],-0.568
same,glycan array binding signal (z-score),[22],0.533
same,glycan array binding signal (z-score),Gal(a1-3)GalNAc,-0.059
same,glycan array binding signal (z-score),[23],3.56
same,glycan array binding signal (z-score),[24],-0.261
same,glycan array binding signal (z-score),Gal(a1-4)Gal(b1-4)Glc,0.281
same,glycan array binding signal (z-score),Gal(a1-4)Gal(b1-4)GlcNAc,0.249
same,glycan array binding signal (z-score),[25],-0.336
same,glycan array binding signal (z-score),[26],-0.231
same,glycan array binding signal (z-score),Gal(a1-4)GlcNAc,-0.177
same,glycan array binding signal (z-score),Gal(a1-6)Glc,-0.444
